Assay results taken from PubChem BioAssay AID1963576 (National Center for Advancing Translational Sciences (NCATS), 2024).
The campaign covered roughly 46,000 compounds. About 60 (0.1%) were called active. Not shown: some 3% with an inconclusive outcome. Calls come from the whole dose curve; as a rule, active = well fitted inhibition curve with a large enough effect; inconclusive = small, poorly fitted or top-dose-only effect; inactive = no such curve, though single readings can be large or run the other way. The list shows a part of the results.

Assay: Primary qHTS assay for Inhibitors of ovarian cancer metastasis using an organotypic tumor microenvironment (TME) model.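 For activity change, negative = inhibition: plate controls were DMSO wells for no effect and tomatine positive control wells for full effect.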 Note: nearly all actives have a fitted effect of over 65% in size.
Settings: SKOV3ip1-GFP adhesion/invasion on 3D omental model, fluorescence; series mostly up to 45.8 µM; activity change, negative = inhibition: at the top concentration
Procedure, shortened: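 A 3D layer of primary human omental fibroblasts, mesothelial cells, fibronectin and collagen I, grown 48 hr, received SKOV3ip1-GFP cells in serum-free medium plus compounds at 0.36-46 umol/L. After 2 hr RT and 16 hr 37 C, fixed adherent GFP cells were counted; normalized to DMSO and tomatine.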

outcome, inactive:
CCOC(=O)c1c(NC(=O)COc2ccccc2)sc(C(C)=O)c1C
Cc1cc(C)cc(OCC(=O)N2CCC(c3nc4ccccc4o3)CC2)c1
COc1ccc(C)cc1NC(=O)Cn1cc(S(=O)(=O)N2CCC(C)CC2)c2ccccc2c1=O
O=S(=O)(c1ccccc1)n1nc(-c2ccc(Cl)cc2)nc1NCc1ccccc1
Cc1cccc(N2CCN(C(=O)c3cnc4c(C)cccn4c3=O)CC2C)c1 (stereo not given)
CCC(C)NC(=O)c1ccc2c(c1)nc1n2CCCCC1 (stereo not given)
COc1ccc(NC(=O)CSc2nc3c(oc4ccccc43)c(=O)n2-c2ccccc2)cc1OC
CCOc1ccccc1NC(=O)c1cc(S(=O)(=O)N2CCOCC2)cn1C
CCCNC(=O)c1cnn2c(C(F)F)cc(-c3ccccc3)nc12
COc1ccc(Cl)cc1N=C1NC(=O)CC(C(=O)Nc2ccccc2C(F)(F)F)S1 (stereo not given)
COc1ccc(S(=O)(=O)N(CC(=O)Nc2cc(C)cc(C)c2)c2ccc(Cl)cc2)cc1
COc1ccccc1CNC(=O)CCCCn1c(=O)c2ccccc2n(Cc2ccccc2C)c1=O
CCCc1cc(=O)[nH]c(Nc2ccccc2O)n1
COc1ccc(-c2nc3scc(CCNS(=O)(=O)c4c(C)cc(C)cc4C)n3n2)cc1OC
CN(Cc1ccccc1)S(=O)(=O)c1nnc(NC(=O)c2ccccc2Cl)s1
CCOC(=O)c1ccc(N2CCN(c3cc(Cl)ccc3C)CC2)c(NC(=O)Nc2ccc(OCC)cc2)c1
COc1cc(Cl)c(NC(=O)CC(C)S(=O)(=O)c2cc3c(cc2C)NC(=O)CO3)c(OC)c1 (stereo not given)
CCOc1ccc(CN2C(=O)c3ccccc3Sc3ccc(C(=O)NCCCN4CCOCC4)cc32)cc1

Activity change, negative = inhibition, inactive:
CCN(C(=O)Cn1nc(Cc2ccncc2)c2ccccc2c1=O)c1ccc(OC)cc1 1.1%
COC(=O)c1c(NC(=O)c2ccc(C(C)(C)C)cc2)sc2c1CCC(C)C2 (stereo not given) -1.06%
CC1(C)CC(=O)c2cc(-c3nc(-c4ccc(F)cc4)cs3)c(=O)[nH]c2C1 0.669%
CCN(C(=O)C(NS(=O)(=O)c1ccc(Br)s1)c1ccccc1)c1ccc(C)c(C)c1 (stereo not given) 3.95%
CCOc1ccc(NC(=O)c2c(NCc3cc(OC)c(OC)cc3OC)sc3c2CCCC3)cc1 -15.7%
COC(=O)c1ccccc1NC(=O)C(Cc1ccccc1)N1Cc2ccccc2C1=O (stereo not given) 1.94%
CCC(=O)N1c2ccccc2CC1C(=O)NCCN1CCN(c2cc(Cl)ccc2C)CC1 (stereo not given) 2.3%
COc1cccc(CC(=O)Nc2c(C(=O)N3CCN(c4ccccc4F)CC3)oc3ccccc23)c1 6.28%
COCCCNc1nc2c(c(=O)[nH]c(=O)n2C)n1CC(O)COc1ccc(Cl)cc1 (stereo not given) -4.48%
Cc1cc(C)c2c(=O)c3c(oc2c1)C(=O)N(CCCOC(C)C)C3c1ccccc1F (stereo not given) -11.7%
CCCC1=Nc2cc(C(=O)NC3CCCCC3)ccc2Sc2ccc(C)cc21 -7.54%
N#C/C(=C\c1ccc(F)cc1)c1nc(-c2ccc(-c3ccccc3)cc2)cs1 -5.11%
COc1ccc(CCNC(=O)Cn2c(=O)nc(-c3ccccc3)c3cc(Cl)ccc32)cc1OC -6.5%
CC(=O)c1cccc(NC(=O)c2ccc3c(c2)N(Cc2ccc(C)cc2)CCS3)c1 6.74%
COc1ccc(NC(=O)Cn2c(-c3ccc(F)cc3)cc(C(C)=O)c2C)c(OC)c1 -0.409%
CC(=O)Nc1ccc(S(=O)(=O)NCC2CCC(C(=O)NCCc3ccc(C)cc3)CC2)cc1 (stereo not given) -8.86%
CC(C)c1ccc(NC(=O)N2CCN(c3ccc(Cl)c(Cl)c3)CC2)cc1 -22.7%
Cc1nc2c(-c3ccccc3)c(C)nn2c(C)c1CCC(=O)NCCc1ccccc1 5.93%
O=C(NCc1ccccc1Cl)C1CCCN(C(=O)c2cnn(-c3ccc(F)cc3)c2-n2cccc2)C1 (stereo not given) 8.3%
O=C(COc1cccc(Cl)c1)N1CCC(c2nc3ccccc3o2)CC1 -6.17%
CCOc1ccc(NC(=O)CSc2nc3c([nH]c4ccccc43)c(=O)n2-c2cc(C)cc(C)c2)cc1 5.73%
Cc1ccc(N2CCN(C(=O)c3c(C)oc4ncnc(N5CCCCC5)c34)CC2)c(C)c1 -2.98%
O=C(NC1CC(=O)N(c2ccc(Cl)cc2)C1)C1CCCC1 (stereo not given) -7.04%
CCOC(=O)c1c(C)oc2c1cc(NS(=O)(=O)c1ccc(C)cc1)c1ccccc12 -2.51%
O=C(CSc1nc(-c2ccccc2)no1)N1CCN(c2ccccc2)CC1 0.159%
CC(C)(C)OC(=O)N1CCC(c2c(C(=O)NCc3ccccc3)cnn2-c2ccc(F)cc2)CC1 2.2%
CN1CCN(C(=O)c2ccc3c(c2)N(Cc2ccc(F)cc2)C(=O)c2ccccc2S3=O)CC1 (stereo not given) 3.89%
CCC(=O)N1c2ccccc2C(C)(c2ccccc2)CC1(C)C (stereo not given) 16.4%
CC1(C)CC(=O)c2cc(-c3nc(-c4ccc(Cl)cc4)cs3)c(=O)[nH]c2C1 -0.474%
CC(C)Oc1ccc(NC(=O)c2cc3ccccc3o2)cc1 -0.819%
COc1ccc(CCNc2oc(COc3cccc(C)c3)nc2C#N)cc1OC -5.74%
Cc1sc2c(c1C)c(=O)n(Cc1ccccc1)c(=O)n2CC(=O)N(C)c1ccccc1 15.7%
Cc1ccc(NC(=O)c2cc(S(=O)(=O)N3CCCCCC3)ccc2F)cc1F 0.875%
CCN1CCc2c(sc(-n3cccc3)c2C(C)NC(=O)Nc2cc(Cl)c(OC)cc2OC)C1 (stereo not given) 0.563%
CC(=O)N1CCc2cc(Br)cc(S(=O)(=O)NCCc3ccc(Cl)cc3)c21 1.01%
CC(=O)c1cccc(NC(=O)CCc2nc3cccnc3n2Cc2cccs2)c1 3.09%
CC1CCN(S(=O)(=O)c2ccc3c(ccc(=O)n3CC(=O)NCc3ccc(Cl)cc3)c2)CC1 17.8%
COc1ccc(-c2nc(Cn3c(=O)cc(-c4ccccc4)c4c(C)nn(C)c43)c(C)o2)cc1OC -6.75%
CC(C)Oc1ccc(CNC(=O)c2ccc3nc(C(C)C)oc3c2)cc1 -9.36%
CN(C)c1ccc(C(=O)Nc2c(C(=O)NC(C)(C)C)oc3ccccc23)cc1 -14.9%
Cc1cc(C)cc(NC(=O)C(CC(C)C)NC(=O)C2CCCCC2)c1 (stereo not given) 3.17%
CCn1c(C(=O)N2CCC(C(=O)N3CCN(c4ccc(OC)cc4)CC3)CC2)cc2sccc21 12.6%
CCNc1nc(NC(C)(C)C)nc(Oc2ccc(=O)n(-c3ccccc3)n2)n1 4.74%
CCc1ccccc1N1CC(c2nc3ccccc3n2CCOc2ccc(Cl)c(C)c2)CC1=O (stereo not given) -28.4%
CCOC(=O)CSc1nc(-c2ccc(F)cc2)cc(C(F)(F)F)c1C#N -1.93%
COc1ccc(CCNc2nc3ccc(C)cc3n3cnnc23)cc1OC 2.55%
O=C(c1cccn1-c1nnc(N2CCCCC2)s1)N1CCN(c2ccc(Cl)cc2)CC1 -2.75%
CC(=O)c1c(C)n(-c2ccc(Cl)cc2)c2ccc(OC(=O)COc3ccccc3)cc12 1.57%
CC(=O)c1cccc(NC(=O)c2ccc(Cl)c(S(=O)(=O)N3CCOCC3)c2)c1 -4.99%
CC(C)(C)C1CCc2c(sc(NC(=O)c3ccccc3F)c2C(=O)NCc2ccco2)C1 (stereo not given) -15.3%
Cc1cc(C)cc(C(=O)Nc2cccc(-c3nc4ncccc4o3)c2C)c1 4.44%
O=C(NCCn1cc(SCc2ccccc2)c2ccccc21)c1cccs1 -16.1%
CCc1nn2c(=O)cc(COC(=O)c3ccc4c(c3)OCO4)nc2s1 27.9%
Cc1nn(-c2ccc(N3CCCC3)nn2)c(C)c1CCC(=O)NCc1ccccc1 -2.02%
COc1ccc(C2=NS(=O)(=O)N(C)C(C(=O)Nc3ccc(OC(F)(F)F)cc3)=C2)cc1 2.88%
CCOC(=O)c1cc2c(=O)n3ccccc3nc2n(CCOC)c1=NC(=O)c1cc2ccccc2o1 0.209%
c1ccc(N2CCN(Cc3nnc(-c4ccc5c(c4)OCO5)o3)CC2)cc1 -17.2%
COc1ccc(CNc2ncnc3c2cnn3-c2ccc(Cl)cc2)cc1 -2.45%
CCOC(=O)c1c(C)oc2nc(C)nc(NCC3CCN(Cc4ccc(F)cc4)CC3)c12 -7.12%
NC(=O)c1ccc(-c2nc(-c3ccc4c(c3)OCO4)c(-c3ccccn3)[nH]2)cc1 -16.9%
CC(NC(=O)CCCN1C(=O)CCn2nc(-c3cn(C)c4ccccc34)cc21)c1ccccc1 (stereo not given) 1.97%
COc1cccc(-c2ccc3c(N)c(C(=O)c4ccc(F)cc4)sc3n2)c1 29.4%
CCC(Oc1ccccc1)C(=O)N1CCN(Cc2cc(=O)n3nc(-c4cccc(C)c4)sc3n2)CC1 (stereo not given) 4.14%
Cc1cc(N2CCN(C)CC2)nc2ccc(NC(=O)Nc3ccc(F)cc3F)cc12 2.46%
Fc1ccc(-c2nc3c4c(-c5ccccc5)c(-c5ccccc5)oc4ncn3n2)cc1 -5.97%
Cc1ccc(CSC2=Nc3ccccc3C3=NC(CCC(=O)NCc4cccs4)C(=O)N23)c(C)c1 (stereo not given) -10.5%
COc1ccc(Nc2ccc3cc(S(=O)(=O)N4CCCC4)ccc3n2)cc1OC -4.52%
O=C(Nc1ccc(Cl)c(-c2nc3ccccc3o2)c1)c1cccc2c(Cl)cccc12 8.56%
Cc1ccc(NC(=O)CSc2nncn3c2cc2sccc23)cc1F -35%
Cc1ccc(NS(=O)(=O)c2c(C)nc3sccn3c2=O)c(Cl)c1 -1.62%
Cc1ccc(-n2c(=O)c3c(c4cc(C)ccc4n3C)n(CC(=O)NCC3CCCO3)c2=O)cc1 (stereo not given) 5.17%
Cc1cccc(NC(=O)CCn2nc(C)c3c(C)n(-c4ccccc4)nc3c2=O)c1C -0.872%
Cc1nn(-c2ccc(N3CCCC3)nn2)c(C)c1CCC(=O)Nc1ccccc1 -3%
CC(C)c1ccc(NC(=O)c2cc(S(=O)(=O)N3CCc4ccccc4C3)ccc2F)cc1 -13.2%
Cc1ccc(NC(=O)CCS(=O)(=O)c2ccc3nc(C)sc3c2)c(C)c1 10.8%
COc1ccc(S(=O)(=O)NCc2ccc3c(c2)CCN3C(C)=O)cc1OC 1.77%
CN(C)c1ncc(C(=O)NCc2ccccc2Cl)cn1 5.25%
